Results taken from the supplement of paper PMC3334620.
The full ranking holds about 33,000 sequences; the median of “E-score (-0.5 to 0.5)” is about -0.035, and the highest 2% start at about 0.35. Some of the results follow.

Target: T1, Pdr3 (UniProt P33200)
T1 sequence: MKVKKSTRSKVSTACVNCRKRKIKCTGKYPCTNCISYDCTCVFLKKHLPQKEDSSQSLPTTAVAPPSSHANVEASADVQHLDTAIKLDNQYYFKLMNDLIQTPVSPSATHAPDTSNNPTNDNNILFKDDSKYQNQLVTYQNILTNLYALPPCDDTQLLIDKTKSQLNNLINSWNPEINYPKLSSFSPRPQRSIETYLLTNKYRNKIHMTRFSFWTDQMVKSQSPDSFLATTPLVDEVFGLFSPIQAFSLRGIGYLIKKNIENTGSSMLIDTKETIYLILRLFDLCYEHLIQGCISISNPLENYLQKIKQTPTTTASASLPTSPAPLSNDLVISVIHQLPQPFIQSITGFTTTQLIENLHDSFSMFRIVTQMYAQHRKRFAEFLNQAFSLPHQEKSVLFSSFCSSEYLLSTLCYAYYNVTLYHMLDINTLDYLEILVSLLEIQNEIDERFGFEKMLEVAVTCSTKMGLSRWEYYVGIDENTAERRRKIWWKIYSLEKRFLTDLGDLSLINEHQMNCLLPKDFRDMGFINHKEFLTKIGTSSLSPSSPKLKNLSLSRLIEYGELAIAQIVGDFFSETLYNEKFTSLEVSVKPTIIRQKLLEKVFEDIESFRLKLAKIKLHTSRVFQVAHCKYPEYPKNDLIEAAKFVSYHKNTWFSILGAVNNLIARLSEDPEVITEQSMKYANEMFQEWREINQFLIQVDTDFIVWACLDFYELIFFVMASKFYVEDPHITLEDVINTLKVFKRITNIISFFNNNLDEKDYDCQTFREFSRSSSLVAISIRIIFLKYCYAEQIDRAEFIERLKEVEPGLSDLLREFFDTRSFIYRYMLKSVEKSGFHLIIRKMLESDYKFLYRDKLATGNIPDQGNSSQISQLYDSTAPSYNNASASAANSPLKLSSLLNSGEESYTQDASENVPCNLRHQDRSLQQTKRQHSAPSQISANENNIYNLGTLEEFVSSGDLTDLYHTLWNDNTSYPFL
Assay: PBM E-score (8-mer binding enrichment) (E-score (-0.5 to 0.5)); higher = stronger / more preferred TF binding; most listed sequences are background and not binding sites
Settings: protein concentration: 200 nM; construct: GST-full length
Outline: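 Universal all-10-mer Agilent arrays, fresh or stripped once, were converted to double-stranded form by primer extension. GST-tagged yeast transcription factors from PURExpress in vitro transcription/translation, full-length or DNA-binding domain only, were applied at about 100-200 nM and detected with fluorescent anti-GST. After masliner normalisation, the Universal PBM Analysis Suite scored each ungapped eight-base word together with its reverse complement by E-score.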

Sequence | PBM E-score
AAACATGA | -0.153
TCTCTTAA | -0.0927
ACCGGTAG | 0.0205
CCTTCGCG | 0.156
CGCATGGA | 0.0271
CATTATGG | -0.0619
ATCTTGTC | 0.0953
CTCTCTGA | -0.144
CTAACCGA | 0.0718
CATTGTTA | -0.179
AGTGTGGC | 0.00366
ATGTGGCC | 0.034
CATTCCAG | -0.131
GGAACCCA | 0.18
GAGTGATA | -0.0471
AACGCCAA | 0.0256
ATGGCCGG | 0.239
CCCGCTCA | 0.143
AGAAGGAG | -0.245
AGGATTGA | -0.119
CTGGGCGC | -0.0849
ACCCAATC | 0.0522

Sequence | PBM E-score
AGAACCAA | -0.0407
GACTGGCA | -0.0551
AGCAATCG | -0.0482
CAATTGGG | -0.0532
GACCGCTA | 0.00691
TAACATAA | 0.0329
CCTTCATC | -0.0906
GGTATAAA | 0.0349
GAATGCTA | -0.0399
GGCTTCTA | -0.212
ACACCACC | -0.141
GCCATTCC | 0.255
ATTCTGTG | 0.0657
GATATATA | 0.175
CGCTATGC | -0.0904
TGCTCTAA | -0.268
AGGCGCAG | -0.216
CGGCAACC | 0.286
AGGGAAAT | -0.115
ACTACTTC | 0.0951
CAGTCTAC | -0.247
AGACAGAG | -0.182

Sequence | PBM E-score
ATGCAGCC | -0.0607
CGGAATGA | 0.435
AAGCGAGG | 0.0113
CGACACAC | 0.0172
CAAAACCG | 0.00937
GATCGAGA | -0.0119
GGACTCGA | 0.133
TACCACGA | -0.113
CGAAGCTC | -0.0418
ATACGGTC | -0.0362
ATTGCGCA | 0.159
ATTGGTTC | 0.088
CTTGGAGC | -0.207
GCACCTCC | 0.0713
CATGGAGC | -0.00894
GCCGTATA | 0.0353
CATCCGAA | 0.282
CGGCCGTC | 0.274
CACTGCCC | 0.102
AGGCGGCG | 0.0493
AAAGCGGA | 0.239
ACCCCCGG | 0.17

Sequence | PBM E-score
GGAACACA | 0.24
AAGAGCGC | -0.0783
CGTTAAAA | -0.201
ACTATCCC | 0.165
CGGGTAAG | -0.0318
GGGACGAC | 0.0046
AGCGACGA | -0.238
TACCATAA | -0.0916
TACAATAA | -0.135
GTGCCACA | -0.126
ATGTTGCA | -0.27
AAAGGTCA | -0.0357
GGGTAGCA | 0.122
TCACCAGA | -0.255
CCCCGCTA | 0.212
GGTCGTTA | -0.0495
AGAGACCG | 0.00353
GCCCAATA | 0.0382
ATTGTCAC | -0.0348
CCTAACCA | -0.111
